Reference: the supplement of paper PMC10126150
Values marked as one replicate rest on one cluster of the flow cell; about a third of the high ones do not repeat.

Test system: ATP
Test: switch fluorescence ratio, 500 uM ATP over buffer (Cy3 cluster intensity, sum of 5 cycles each) (fold (ratio)); higher = stronger signal-on switching upon ATP binding; sequences stand for … in TCGTCGGCAGCGTCAGATGTGTATAAGAGACAGTTTTTTTTTTTTTTTTTTTTTTTTT…TC
Details: aptamer strand: ATP DNA aptamer (quencher-CACCTGGGGGAGTATTGCGGAGGAAGG + anchor), 100 nM annealed; ATP concentration: 500 uM; one replicate
Summary of the method: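 Cy3-labelled switching-strand clusters on a modified Illumina MiSeq flow-cell were annealed to 100 nM quencher-labelled ATP aptamer and imaged first in selection buffer, then after 15 min with 500 uM ATP at 22 °C. NaOH stripping and re-annealing separated each of five buffer/ATP cycles, and clusters outside 100-1000 RFU were excluded. The fluorescence ratio sums target-cycle Cy3 intensity over buffer-cycle Cy3 intensity per cluster and averages it per switch-domain sequence.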
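Note: ATP exposure 15 min at 22 °C before imaging.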

Row | Sequence | switch fluorescence ratio
1 | GTACGTAAGT | 1.09
2 | AGTCATCCGT | 1.06
3 | AGATGCGTCT | 0.89
4 | TATGACAAGA | 1.04
5 | GTTACGTAAG | 1.07
6 | TCCGCGTCTC | 2.57
7 | TGGAGGAAGC | 1.04
8 | ATTGGAACAG | 0.998
9 | CGACTACAGA | 1.04
10 | TAATTCTTA | 0.997
11 | GCAACCTGTT | 1.03
12 | CTCGCACTCA | 1.94
13 | GCTTGATTCT | 0.992
14 | GTGTCGAAGT | 1.04
15 | TAACAATTGC | 0.996
16 | AGCCGCGCCC | 1.16
17 | TGATGCGAA | 1.22
18 | TTTGCACAAT | 1.01
19 | AACTTCCGA | 2.58
20 | CCCCTACATC | 1.09
21 | GTTTTAAAAC | 1.01
22 | ATCAAACCAT | 1.08
23 | ATCCTCAGCG | 1.51
24 | TTAGCCTTTT | 0.968
25 | CACAGGTAGA | 1.08
26 | CGATAGGTT | 0.996

Row | Sequence | switch fluorescence ratio
27 | GCAGTCGAGC | 0.99
28 | AGGTGTGCAT | 0.996
29 | CGTTGAATG | 0.999
30 | CGGCAACGAA | 1
31 | TCTAAACGC | 1.03
32 | AGGTGATGG | 1.02
33 | TGTGAAATAA | 1.01
34 | CGGTAGGATA | 0.98
35 | AAGAATATGA | 0.944
36 | TGTCGTACGA | 1
37 | GGGTATGCTC | 0.975
38 | CCGGAGGTCT | 1.18
39 | CGATGAGGTG | 1.15
40 | GAAGTCTTGC | 0.998
41 | AGGCGCGGTC | 0.977
42 | AGTGAGTACG | 1.02
43 | CTTTGGACTG | 1.07
44 | GGAATCCTGT | 1.01
45 | TAAAAACACG | 1.28
46 | ATTTCTGAC | 1.02
47 | TTGAATTTTG | 0.987
48 | GACCATCAAA | 1.05
49 | AGAGGGCTGG | 0.954
50 | GTTTGGTTCC | 1.07
51 | CATCCTATTG | 1
52 | TCATTGGGCC | 0.978

Row | Sequence | switch fluorescence ratio
53 | GCAAAGCATG | 1.04
54 | GGCTGACTTG | 0.943
55 | TGGAAGGCGT | 1.01
56 | AAACCTCCGG | 1.11
57 | GTTACAGGAT | 0.985
58 | TATTCCACTT | 1
59 | AGTTCAGGCG | 0.938
60 | AAAGCACGAT | 1.07
61 | TAGCTGCGCG | 0.992
62 | TTAAAGCGAC | 1.99
63 | TCAATTAACG | 1.11
64 | AGTTACCCAC | 1.56
65 | CAGACCTTTT | 1.02
66 | CCTATATGCC | 0.976
67 | ATGTGAATTA | 0.978
68 | GTCGTGAGG | 1
69 | CACAGGCGGC | 1.02
70 | GTCGAAGCC | 0.997
71 | GTAGGAACAG | 0.968
72 | CGTTAGAAAA | 1.02
73 | CTAGGATCCG | 0.983
74 | AGGAGGTGT | 1.01
75 | TTACCCCTCA | 1.11
76 | TCAGTATTAT | 1
77 | GGGGAGACAA | 1.12
78 | ATGGGCACAC | 1.01

Row | Sequence | switch fluorescence ratio
79 | TTTCAGTTTG | 0.974
80 | GCTGATGTGT | 1.04
81 | TTTCTATAAA | 1.02
82 | TGCTCAAAGG | 0.981
83 | CGAGTCACGA | 1.06
84 | ATCTAGTCTA | 1.01
85 | TACTGCCGGG | 1.05
86 | TCTGGTCGAG | 1.02
87 | CTGCGTTAGG | 1.04
88 | CAGGTGTTCT | 1.46
89 | GTTAACGATG | 0.96
90 | ATGGATGGGA | 0.961
91 | TGAACTCGTG | 0.997
92 | TGTTACGCCC | 1.05
93 | AGGTCTGTGT | 0.954
94 | GAGCTGCCTA | 1
95 | GCACCAGGCG | 2.3
96 | TGCAGCCCGT | 1.02
97 | CCACCGGTCC | 1.31
98 | AGAGCTCCTA | 0.959
99 | ATGCAGGGTC | 0.99
100 | CAGCTGTCAC | 1.13
101 | AAACGGCCGA | 0.979
102 | TCGTTGAAAG | 1
103 | GGACACTCTA | 1.05
104 | TCTTTTCTAG | 1

Row | Sequence | switch fluorescence ratio
105 | ATATAAAAGC | 1.02
106 | GTAGGTATCG | 0.94
107 | GTGCGAAGCA | 1.02
108 | GAGCGGAACT | 1.09
109 | TAACATTGGG | 0.964
110 | AATTGTGGTG | 0.997
111 | TTACTAGTTC | 0.989
112 | TCTGGAGTAA | 4.87
113 | TCTTCATAAT | 0.993
114 | ACAAAGTGGG | 1.01
115 | GCTATTGTTA | 0.943
116 | ACACGACATC | 1.14
117 | TATCGTAGGT | 0.985
118 | GAGAAATAGT | 0.993
119 | GATCATATAA | 1.05
120 | TCAAGAAAGG | 1.05
121 | GTCGCGTTAG | 0.982
122 | CAATGAAGAT | 0.977
123 | CGTCAACGGA | 1.01
124 | TTCAAAGGCG | 1.05
125 | TTCATTATAG | 1.03
126 | GGGTCTCGCA | 0.992
127 | CACGAATGAA | 1.02
128 | GACCCGGCCC | 1.03
129 | TAAAGGTTCA | 0.996
130 | CTCTGCGCAT | 3.89

Row | Sequence | switch fluorescence ratio
131 | CCTTGATATA | 1.01
132 | GAAGTTAGTG | 0.97
133 | AGAGAGACAT | 0.971
134 | TGTTTGGACG | 1.01
135 | AATTATGTTC | 0.992
136 | GCGAGTGTGG | 1.04
137 | AGGGGTTTA | 0.991
138 | AACAAGCACG | 1.17
139 | TAGGTAGAG | 0.977
140 | CTGTTAAGGT | 1.01
141 | TTTGGAAAAG | 1.03
142 | GATCCTTTGA | 0.961
143 | TCTCATCGAT | 1.01
144 | AAGTAGCCC | 0.997
145 | AGATGTATCG | 0.98
146 | TGACAGCGTC | 0.967
147 | TAATTAGATA | 0.959
148 | TCCCCATCGT | 1.04
149 | GGTAATAGTT | 0.998
150 | GGAGTTCCTA | 0.994
151 | ATCGCTGAGG | 1.01
152 | ATTAAAGAC | 0.991
153 | TCAGAAAAGA | 1.07
154 | ACCCAGGCTG | 3.35
155 | ATGCTGGGAG | 0.988
156 | CGGATCTAAG | 0.988

Row | Sequence | switch fluorescence ratio
157 | CCTTATGTTT | 0.953
158 | TCATATCTAT | 1
159 | GCAAAGTCT | 0.954
160 | TAGTATGGG | 0.995
161 | CATCTATCGG | 1.07
162 | TCATAGTGCT | 0.979
163 | TCAATAATCT | 1.02
164 | CATCTAGAGA | 1
165 | AATTACTTAA | 1.11
166 | CTGCACGGTG | 1.09
167 | AGTGGGACAA | 1.02
168 | AGATACCTAT | 0.96
169 | CGCACAGACG | 1.14
170 | TATGTCTGC | 1
171 | TTACCAGAGC | 1.04
172 | ACGTACGTTC | 1.42
173 | CTGGACTTAT | 0.947
174 | TAAATCAAAA | 1.04
175 | AGGTGTGTTT | 1.01
176 | TTACGATATG | 1.21
177 | GCTTGGCGGA | 1
178 | CGGTGCGACA | 1.01
179 | CCAATTTAAC | 1.36
180 | GCAGCGGCAT | 1.03
181 | CACTGTAATT | 1.22
182 | GTTGTCGGCT | 1.07

Row | Sequence | switch fluorescence ratio
183 | AATCTCCTC | 1.07
184 | AATGGCCCAA | 1.02
185 | AGCGGGCCAC | 0.992
186 | TTACGTACAA | 1.48
187 | CCATTTCTT | 1.06
188 | CCACTATTTG | 0.96
189 | TTTAGCGGCC | 1.01
190 | CTTTCGATTC | 1.06
191 | CAGAATTTTG | 0.974
192 | TATAAAGATA | 0.944
193 | ATTCTATTCC | 1.04
194 | TAACGGAAAG | 1.05
195 | GCCCGCCAAT | 2.27
196 | GATGGTCCC | 1.1
197 | CATGTTGCGC | 1.02
198 | GGTCTAGTTA | 1.03
199 | AACTATGAGA | 1.04
200 | CTTACAATTG | 1.01
201 | ACAGAGTATA | 1.01
